# Source: PubChem BioAssay AID1159614 (National Center for Advancing Translational Sciences (NCATS), 2016)
# About 65 (0.1%) of roughly 45,000 compounds were called active. Calls come from the whole dose curve; as a rule, active = well fitted activation curve with a large enough effect; inconclusive = small, poorly fitted or top-dose-only effect; inactive = no such curve, though single readings can be large or run the other way. Some of the results follow.
# Target: Galactocerebrosidase (Homo sapiens) (UniProt P54803)
# Sequence of UniProt P54803 (P54803 whole entry, looked up): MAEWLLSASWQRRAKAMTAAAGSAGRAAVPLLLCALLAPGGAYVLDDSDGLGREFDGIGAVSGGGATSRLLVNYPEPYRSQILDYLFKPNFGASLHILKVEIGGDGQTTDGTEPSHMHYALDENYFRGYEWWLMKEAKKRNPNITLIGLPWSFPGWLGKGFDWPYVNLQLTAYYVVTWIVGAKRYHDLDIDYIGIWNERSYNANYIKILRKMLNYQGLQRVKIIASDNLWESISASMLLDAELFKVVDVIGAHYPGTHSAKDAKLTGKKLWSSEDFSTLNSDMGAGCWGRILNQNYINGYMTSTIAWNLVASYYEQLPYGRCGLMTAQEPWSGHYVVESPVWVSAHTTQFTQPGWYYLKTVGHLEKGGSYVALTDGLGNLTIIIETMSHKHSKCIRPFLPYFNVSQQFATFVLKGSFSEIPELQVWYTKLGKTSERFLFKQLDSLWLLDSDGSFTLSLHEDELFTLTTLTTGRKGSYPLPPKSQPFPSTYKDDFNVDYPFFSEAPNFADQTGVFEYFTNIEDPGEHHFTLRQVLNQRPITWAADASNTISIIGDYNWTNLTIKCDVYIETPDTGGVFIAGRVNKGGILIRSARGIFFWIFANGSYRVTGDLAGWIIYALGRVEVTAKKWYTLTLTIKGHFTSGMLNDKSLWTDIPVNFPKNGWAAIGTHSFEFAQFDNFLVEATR
# Assay: A Novel Cell-Based Assay to Identify Small Molecules for B -Galactocerebrosidase; note: 0% is about no effect; nearly all actives have a fitted effect of over 65% in size
# Conditions: 145M-Twi-hGALC-G270D cells (Twitcher mouse brain line with human GALC G270D), HMU-beta-Gal fluorescence, 48 h; series mostly up to 57.5 µM; activation: at the top concentration
# In short: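 Live 145M-Twi cells (Twitcher mouse brain-derived, GALC-null) stably expressing human GALC-G270D, with a wild-type GALC line, were compound-treated. Residual GALC activity was then read as fluorescence from 0.1 mM final HMU-β-gal at pH 5.2; higher signal means activation.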
row,SMILES,activation
1,Cc1ccc(OC(C)C(=O)Nc2nonc2-c2ccc(Br)cc2)cc1C (stereo not drawn),inactive: -18.1%
2,CCOC(=O)c1cc(S(=O)(=O)N2CCN(c3ccccc3)CC2)[nH]n1,inactive: 1.25%
3,CC(C)OCCCNC(=O)c1ccc2c(c1)N(Cc1c(F)cccc1Cl)C(=O)c1ccccc1S2,inactive: -7.55%
4,COc1ccc(-c2nn3c(=O)cc(CN4CCN(C(=O)c5ccc(C(C)(C)C)cc5)CC4)nc3s2)cc1,inactive: -5.29%
5,CCOC(=O)CC(NS(=O)(=O)c1ccc2[nH]c3c(c2c1)CCCC3)c1ccccc1Cl (stereo not drawn),inactive: -13.8%
6,COc1ccc(C(=O)NCC(c2cccnc2)N2CCc3ccccc32)cc1 (stereo not drawn),inactive: -41.1%
7,Cc1ccc(Oc2c(C(F)(F)F)oc3c(CN4CCCCC4C)c(O)ccc3c2=O)cc1 (stereo not drawn),inactive: -12%
8,Cc1ccc(Nc2c(-c3c[nH]c4ccccc34)nc3cc(C)ccn23)cc1,inactive: -4.86%
9,COc1cc(OC)c(OC)cc1/C=C/c1nc2cc3ccccc3cc2c(=O)n1-c1ccc(Cl)cc1,inactive: -17.9%
10,CCOc1ccccc1NC(=O)CSc1nc2c(oc3ccccc32)c(=O)n1-c1ccc(C)c(C)c1,inactive: -12.9%
11,CCOC(=O)C1=C(CS(=O)(=O)c2cccc(C(F)(F)F)c2)NC(=O)NC1c1cccc(OC)c1 (stereo not drawn),inactive: -1.94%
12,CCC(C(=O)Nc1cc(Cl)ccc1OC)n1nc(-c2ccccc2)ccc1=O (stereo not drawn),inactive: 0.744%
13,Cc1cccc(NC(=O)c2oc3ccccc3c2NC(=O)Cc2coc3c(C)c(C)ccc23)c1,inactive: -15.5%
14,O=C(CCC1N=C2c3ccccc3N=C(SCc3ccc(F)cc3)N2C1=O)NCc1cccs1 (stereo not drawn),inactive: -20.1%
15,CC1=C(c2ccc(C)c(C)c2)S(=O)(=O)N(Cc2ccc(C(=O)NCc3cccc(C)c3)cc2)C1=O,inactive: -10.4%
16,Cc1c(Cl)cccc1NC(=O)CN1C(=O)CCn2nc(-c3cccn3C)cc21,inactive: -7.13%
17,CCOC(=O)C(Cc1c[nH]c2ccccc12)NC(=O)COc1ccc(Cl)cc1 (stereo not drawn),inactive: -27.1%
18,O=C(NCc1ccc2c(c1)CCN2C(=O)c1ccncc1)c1ccc(Cl)cc1,inactive: -0.736%
19,COc1cccc(-c2nnc3n(Cc4ccccc4Cl)c(=O)c4ccccc4n23)c1O,inactive: -15.5%
20,O=C(c1ccccc1)C(O)c1ccccc1 (stereo not drawn),inactive: -9.94%
21,CC(C)Oc1ccc(CNC(=O)CCCn2c(=O)c3cccn3c3cccnc32)cc1,inactive: 7.6%
22,Cc1ccc2c(=O)c(C(=O)c3ccccc3)cn(CC(=O)Nc3ccccc3)c2n1,inactive: -13.6%
23,O=C(NCCCN1CCCCC1)c1cc(Sc2ccc(Cl)cc2)nc2ccccc12,inactive: -3.88%
24,CCn1c(NCc2cccc(Cl)c2)nc2ccccc21,inactive: -16.9%
25,COc1cccc(C(=O)NC2=NC(c3ccc(N(C)C)cc3)CC(=O)N2)c1 (stereo not drawn),inactive: -7.51%

row,SMILES,activation
1,O=C(CSc1nc(-c2ccccc2)cn1-c1ccccc1)Nc1ccccc1,inactive: -6.89%
2,COc1cc(-c2nc3ccc(C)cn3c2Nc2ccc(Cl)cc2)ccc1O,inactive: 15.2%
3,COc1ccc(-n2c(=O)c3ccc(C(=O)NCc4ccc(C)cc4)cc3n(CC(=O)Nc3ccc(C)cc3)c2=O)cc1,inactive: -11.9%
4,Cc1cc(C)c(C(=O)Nc2ccccc2)c(SCC(=O)Nc2ccc(Br)cc2C)n1,inactive: -11.9%
5,Cc1ccc(Cn2c(C(=O)O)c(CNCCc3ccco3)c3ccc(C)cc32)cc1,inactive: 3.63%
6,Cc1c[nH]c2ccccc12,inactive: -6.72%
7,COc1ccccc1NC(=O)CCn1c(=O)oc2cc(Cl)ccc21,inactive: -16.3%
8,COc1ccc(Cl)cc1NC(=O)c1nn(C)c2c1CS(=O)(=O)c1ccccc1-2,inactive: -13.2%
9,COCCCNC(=O)C1CCN(c2cc(C)nc3c(-c4ccc(OC)c(OC)c4)c(C)nn23)CC1,inactive: -14.3%
10,CCOc1cc(-c2nc(-c3ccc(-c4ccc(OC)cc4)nc3OC)no2)cc(OCC)c1OCC,inactive: -15.5%
11,COc1ccc(-n2cc(C(=O)NCc3cccc(OC)c3)c3ccccc3c2=O)cc1,inactive: 7.87%
12,COc1ccc(-c2cc(C(=O)NCCc3ccccc3)c3cc(C(C)C)ccc3n2)cc1,inactive: -18.6%
13,O=S(=O)(c1ccc(Br)cc1)c1nnn2c1nc(NCc1cccs1)c1sccc12,inactive: -4.09%
14,CC(=O)c1ccc(N2CCN(C3C(=O)c4ccccc4N3C(C)=O)CC2)cc1 (stereo not drawn),inactive: 1.04%
15,Cc1nc2nc(NC(=O)c3ccc(Cl)cc3)[nH]n2c(=O)c1Cc1ccccc1,inactive: -13.8%
16,CCc1ccc(NC(=O)CSc2nc(=O)n(Cc3ccco3)c3c2CCC3)cc1,inactive: -11.1%
17,CC1=C(C(=O)Nc2ccccc2C)C(c2ccccn2)n2nc(SCc3ccccc3F)nc2N1 (stereo not drawn),inactive: -19.4%
18,O=C(CSc1nc(=O)n(Cc2ccco2)c2c1CCC2)NCc1ccc(F)cc1,inactive: -7.72%
19,COc1ccc2nc(NC(=O)c3ccc(S(=O)(=O)N4CCCC(C)C4)cc3)sc2c1 (stereo not drawn),inactive: -19.9%
20,O=C(NC1CC(=O)N(c2ccc(Cl)cc2)C1)c1cccs1 (stereo not drawn),inactive: 0.576%
21,CC(NC(=O)Cn1c(-c2cccs2)cc2cc(F)ccc21)c1ccccc1 (stereo not drawn),inactive: -3.33%
22,O=c1[nH]c(SCc2ccc(Br)cc2)nc2c1CCCC2,inactive: -13%
23,Cc1ccc(S(=O)(=O)c2nnn3c2nc(N2CCN(c4ccccc4F)CC2)c2ccccc23)cc1C,inactive: 7.78%
24,Cc1ccc(C(=O)NC2(C(F)(F)F)C(=O)Nc3c2c(=O)[nH]c(=O)n3CCc2ccccc2)cc1 (stereo not drawn),inactive: -6.28%
25,CCOC(=O)c1cc(-c2ccccc2)n(CCCC(=O)Nc2ccc(C)cc2C)c1C,inactive: -13.4%

row,SMILES,activation
1,Cc1cccn2c(=O)c3cc(C(=O)NCc4ccccc4Cl)sc3nc12,inactive: -9.42%
2,COc1ccc(-c2cc(C(=O)Oc3ccc(C)c(C)c3)c3ccccc3n2)cc1,inactive: -6.02%
3,O=C(Cn1c(=O)n(Cc2ccc3c(c2)OCO3)c(=O)c2ccc(C(=O)NC3CCCCC3)cc21)Nc1ccccc1F,inactive: -34.4%
4,CCC(C)NC(=O)c1c(-c2ccccc2)c(-c2ccccc2)nn(C)c1=O (stereo not drawn),inactive: -13.7%
5,CCOc1ccc(-n2c(SCC(=O)N3CCCCC3)nc3c([nH]c4ccccc43)c2=O)cc1,inactive: -22.5%
6,CC(C)(C)C(=O)N1CCN(c2nc3c(F)cccc3s2)CC1,inactive: -20.3%
7,Cc1cccc(-n2c3nc(=O)n(C)c(=O)c-3cc3ccc(Cl)cc32)c1C,inactive: -5.57%
8,Cc1noc2ncnc(NCc3cccc(Cl)c3)c12,inactive: -39.2%
9,Cc1c(C(=O)N2CCC(C(=O)Nc3ccc(F)cc3)CC2)sc2nc[nH]c(=O)c12,inactive: -10.9%
10,CS(=O)(=O)N1CCc2cc(C(=O)NCc3ccccc3)ccc21,inactive: -11.7%
11,Oc1cccc(Nc2ncnc3sc4c(c23)CCCC4)c1,inactive: -10.2%
12,Cc1cccc(CN2C(=O)c3ccccc3S(=O)(=O)c3ccc(C(=O)N4CCN(c5cc(C)ccc5C)CC4)cc32)c1,inactive: -13.3%
13,COc1cccc(C(=O)n2nc(-c3ccco3)nc2NCc2cccs2)c1,inactive: -10.9%
14,CCc1ccc(-c2cc3c(N4CCN(c5ccccc5)CC4)nccn3n2)cc1,inactive: 0.733%
15,COc1ccc(Br)cc1CNC(=O)c1ccc2c(c1)nc1n2CCCCC1,inactive: -0.634%
16,Cc1c(C(=O)NCc2ccccc2Cl)sc2nc3n(c(=O)c12)CCC3,inactive: -15.9%
17,Cc1cc(C)cc(N2CCn3c2nc2c3c(=O)n(CCc3ccccc3)c(=O)n2C)c1,inactive: -16.3%
18,COc1ccc(N(CC(=O)NCc2ccc(C)cc2)S(=O)(=O)c2c(C)[nH]c(=O)[nH]c2=O)cc1,inactive: -16.5%
19,CC(=O)N/N=C/c1ccc([N+](=O)[O-])o1,inactive: -13.6%
20,Cc1cccc(-c2nc3nc(C)cc(N4CCN(c5ccccc5)CC4)n3n2)c1,inactive: -12%
21,COc1ccc(N2CCN(C(=O)CCn3cnc4onc(-c5ccc(F)cc5)c4c3=O)CC2)cc1,inactive: -33.7%
22,COc1ccc(NS(=O)(=O)c2ccc(NS(=O)(=O)c3ccc4c(c3)OCCO4)cc2)cc1,inactive: -8.96%
23,CC(C)(C)C1CCc2c(sc(NC(=O)c3ccncc3)c2C(=O)Nc2ccccc2Cl)C1 (stereo not drawn),inactive: -5.73%
24,COc1cccc(N2CCN(Cc3nnc(-c4ccc5c(c4)OCO5)o3)CC2)c1,inactive: -8.35%
25,COc1ccc(NC(=O)N2CCN(c3cc(-c4noc(C)n4)ccc3C)CC2)c(OC)c1,inactive: -8.51%

row,SMILES,activation
1,Cc1ccc(-c2nc3c4ccccc4n(Cc4cccc(Cl)c4)c(=O)n3n2)cc1,inactive: 4.78%
2,CCOC(=O)Cc1ccc(NC(=O)N2CC(CC)Oc3ccccc32)cc1 (stereo not drawn),inactive: -11.7%
3,COc1ccc2nc(N3CCN(C(=O)c4ccco4)CC3)sc2c1,inactive: -12.7%
4,COc1ccc(OC)c(CNC(=O)C2COc3ccccc3C2)c1 (stereo not drawn),inactive: -5.26%
5,CCc1ccc(S(=O)(=O)c2nnn3c2nc(N2CCCC(C)C2)c2cc(Cl)ccc23)cc1 (stereo not drawn),inactive: -12.8%
6,CCN1CCN(CCCNC(=O)Cn2nc(C)n3c(cc4cc(C)ccc43)c2=O)CC1,inactive: -6.44%
7,CCCc1ccc(NC(=O)C2CCN(c3cnccn3)CC2)cc1,inactive: -8.06%
8,Cc1ccc(NC(=O)Cc2ccc(NC(=O)N3CCCCc4ccccc43)cc2)cc1,inactive: -9.53%
9,Clc1ccc(CSc2nc3ncccc3[nH]2)cc1,inactive: -5.31%
10,Cc1nc2ccccc2n1CCc1nc2c3ccccc3nc(SCC(=O)Nc3ccc(C(C)C)cc3)n2n1,inactive: -1.79%
11,O=C(Nc1nonc1-c1ccc(Br)cc1)c1ccco1,inactive: -1.95%
12,COc1ccc(NC(=O)c2ccco2)cc1NC(=O)COc1ccc(C)cc1C,inactive: -10.3%
13,Cc1ccc(NC(=O)CSc2[nH]c(=O)ncc2C)cc1,inactive: -11.3%
14,CSc1cccc(NC(=O)Cn2nnc(C(=O)NCCc3ccccc3)c2N)c1,inactive: -10.2%
15,Cc1cc(Cl)ccc1NC(=O)CN1C(=O)C(=O)c2ccccc21,inactive: -9.18%
16,Cn1c(=O)n(CCc2ccccc2)c(=O)c2c1nc1n2CCN1c1ccc(Cl)cc1,inactive: -1.21%
17,Cc1cccc(N2CCN(c3ccc(C(=O)O)cc3NC(=O)c3ccccc3F)CC2C)c1 (stereo not drawn),inactive: -36.5%
18,C=CCN1CCc2nc(N)sc2CC1,inactive: -15.5%
19,COC(=O)C1=C(c2ccccc2)c2ccccc2S(=O)(=O)N1CC(=O)Nc1ccccc1C(F)(F)F,inactive: -4.77%
20,CCCCC(=O)Nc1ccc(C(=O)OCc2cc(=O)n3nc(C4CC4)sc3n2)cc1,inactive: -6.74%
21,COc1ccc(S(=O)(=O)Cc2ccc(C(=O)NC3CCCCC3)o2)cc1,inactive: 4.68%
22,CC(=O)c1ccc(N2CCN(C(=O)Nc3cccc(F)c3)CC2)cc1,inactive: -2.42%
23,Cc1cc(C)c2c(-n3cccc3)c(C(=O)NCCc3ccccc3)sc2n1,inactive: -10.2%
